These results are taken from patent publication US9213031B2, “Use of Cbl as biomarker for identifying subject suitable for treatment with anti-c-Met antibody” (SAMSUNG ELECTRONICS CO., LTD., priority 2012, dated 2015).

The test system of one test is Akt. As to the kind of experiment: Akt phosphorylation (selection of affinity-matured antibodies). It is filed as cell-based. As to conditions: among the four antibodies selected in Reference Example 1.7.
Test [1] deals with T1, c-Met (Homo sapiens, UniProt P08581). As to the kind of experiment: c-Met degradation degree (selection of affinity-matured antibodies). It is filed as cell-based. As to conditions: among the four antibodies selected in Reference Example 1.7.
T1 sequence (P08581 25-1390): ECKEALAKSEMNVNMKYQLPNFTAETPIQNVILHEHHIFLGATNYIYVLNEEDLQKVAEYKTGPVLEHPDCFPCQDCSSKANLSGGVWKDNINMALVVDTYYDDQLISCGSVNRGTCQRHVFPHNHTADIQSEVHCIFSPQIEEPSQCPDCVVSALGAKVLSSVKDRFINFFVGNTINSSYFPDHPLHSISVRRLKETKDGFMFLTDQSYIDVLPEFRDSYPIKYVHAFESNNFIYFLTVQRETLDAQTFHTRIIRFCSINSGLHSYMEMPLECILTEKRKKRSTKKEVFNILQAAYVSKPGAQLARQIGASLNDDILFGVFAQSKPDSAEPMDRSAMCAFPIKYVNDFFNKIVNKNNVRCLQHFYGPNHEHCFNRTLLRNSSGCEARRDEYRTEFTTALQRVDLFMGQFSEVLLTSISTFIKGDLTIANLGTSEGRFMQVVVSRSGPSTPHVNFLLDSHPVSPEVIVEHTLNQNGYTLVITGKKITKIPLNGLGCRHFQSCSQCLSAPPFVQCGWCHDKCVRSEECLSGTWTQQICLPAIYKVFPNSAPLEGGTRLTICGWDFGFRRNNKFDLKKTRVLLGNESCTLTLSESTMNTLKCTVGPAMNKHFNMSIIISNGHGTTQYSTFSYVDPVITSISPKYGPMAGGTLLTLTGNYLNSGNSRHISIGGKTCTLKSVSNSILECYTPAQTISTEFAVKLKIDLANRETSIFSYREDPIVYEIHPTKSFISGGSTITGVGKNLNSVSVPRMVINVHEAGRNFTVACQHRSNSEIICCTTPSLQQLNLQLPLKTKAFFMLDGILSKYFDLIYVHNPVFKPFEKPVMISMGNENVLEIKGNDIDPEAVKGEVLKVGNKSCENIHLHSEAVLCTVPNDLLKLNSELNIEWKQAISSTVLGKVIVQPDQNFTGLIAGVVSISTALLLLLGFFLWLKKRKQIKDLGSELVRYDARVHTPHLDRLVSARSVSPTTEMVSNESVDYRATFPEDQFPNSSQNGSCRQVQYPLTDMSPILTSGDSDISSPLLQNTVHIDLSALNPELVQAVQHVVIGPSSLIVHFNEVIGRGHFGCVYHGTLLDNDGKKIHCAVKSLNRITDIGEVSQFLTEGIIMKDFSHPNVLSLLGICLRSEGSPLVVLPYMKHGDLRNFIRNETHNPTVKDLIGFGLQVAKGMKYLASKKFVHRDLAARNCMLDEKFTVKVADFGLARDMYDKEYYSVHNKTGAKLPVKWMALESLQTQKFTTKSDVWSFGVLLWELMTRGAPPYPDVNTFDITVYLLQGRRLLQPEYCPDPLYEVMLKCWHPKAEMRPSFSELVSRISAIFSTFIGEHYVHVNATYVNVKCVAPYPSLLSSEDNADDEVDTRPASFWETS
For test [2], the target named is T1, c-Met. As to the kind of experiment: Affinity for c-Met. It is filed as binding. Set-up: endogenous in cells; host or cells: NCI-H441, MKN45, EBC-1 (also Cbl-siRNA treated), HCC827 ER15. The note with it: comparison among the four selected antibodies, or of libraries with wild-type. An excerpt: The affinity for c-Met of each library was compared to that of the wildtype. Most libraries were lower in affinity for c-Met, compared to the wild-type. The affinity for c-Met was retained in some mutants.

B1: huAbF46-H4-A1: affinity-matured humanized anti-c-Met antibody, L3-1 origin (antibody)
heavy: EVQLVESGGGLVQPGGSLRLSCAASGFTFTDYYMSWVRQAPGKGLEWLGFIRNKANGYTTEYSASVKGRFTISRDNSKNTLYLQMNSLRAEDTAVYYCARDNWFAYWGQGTLVTVSSASTKGPSVFPLAPSSKSTSGGTAALGCLVKDYFPEPVTVSWNSGALTSGVHTFPAVLQSSGLYSLSSVVTVPSSSLGTQTYICNVNHKPSNTKVDKKVEPKSCDCH[human IgG1 Fc not printed]
light: DIQMTQSPSSLSASVGDRVTITCKSSQSLLASGNQNNYLAWHQQKPGKAPKMLIIWASTRVSGVPSRFSGSGSGTDFTLTISSLQPEDFATYYCQQSYSRPYTFGQGTKVEIKRTVAAPSVFIFPPSDEQLKSGTASVVCLLNNFYPREAKVQWKVDNALQSGNSQESVTEQDSKDSTYSLSSTLTLSKADYEKHKVYACEVTHQGLSSPVTKSFNRGEC
Turning to B1, the Akt phosphorylation entry with Akt was “lowest”. In the test with c-Met [1], the c-Met degradation degree entry is “lowest”. For the same molecule, in the test with c-Met [2], the “affinity for c-Met” value was “highest”.
